Some entries of the source have several records that differ or are many. The other results are left out here. There may be further records. Results that share an entry are repeats across runs, samples, wells, individuals or studies.
System: MCF7 complex spheroid growth, % test/control
Test: Anticancer human tumor MCF7 cell line growth inhibition [Asc];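 also: spheroids exposed to compounds for 7 days; 100% = DMSO vehicle control wells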
Details: stronger effect = lower value
Method: Multicellular complex tumor spheroid response to apoptosis pathway targeting inhibitors Alrizomadlin, Pelcitoclax, and Dasminapant in combination with a variety of drugs and investigational agents in selected tumor cell lines
The MDM2 inhibitor alrizomadlin, the Bcl-2/Bcl-xL inhibitor pelcitoclax, and the IAPs inhibitor dasminapant were evaluated both individually and in combination with standard of care and investigational anticancer small molecules within a complex spheroid model of solid tumors. . Complex spheroids include a stromal component modeled by human endothelial cells (HUVEC) and fibroblasts modeled by human mesenchymal stem cells (MSCs). The concentration ranges selected for each drug and investigational agent were based upon clinically achievable concentrations if the clinical Cmax of the agent was known.
Compounds. The drugs and investigational agents: alrizomadlin (APG-115; NSC831270), pelcitoclax (APG-1252; NSC835773), dasminapant (APG-1387;NSC834197), TAK-243 (NSC785004), copanlisib (NSC809693), olaparib (NSC753686), talazoparib (NSC767125), cobimetinib (NSC 768068), eltanexor (KPT-8602, NSC 794443), abemaciclib (NSC 768073), sotorasib (NSC818433), adagrasib (NSC 831453), MRTX-1133 (NSC 836407), Iadademestat (ORY1001, NSC 806812), and RMC-4630 (NSC839698), were obtained from the NCI Developmental Therapeutics Program Chemical Repository. The FDA-approved anticancer drug set is available from the Developmental Therapeutics Program at https://dtp.cancer.gov/organization/dscb/obtaining/available plates.htm. […] The stock solutions were prepared in dimethyl sulfoxide (DMSO, Sigma-Aldrich, St. Louis, MO, cat. D2650) at 800-fold the tested concentration and stored at -70 degrees C prior to their use. All drugs and investigational agents were tested over a range starting from a high concentration at or near the clinical Cmax and decreasing in half-log increments. If the clinical Cmax for an agent had not been determined, the highest concentration tested was 10 microM.
The patient-derived cancer (PDC) cell lines include five colon adenocarcinomas: 186277-243-T-J2-PDC, 616215-338-R-J1-PDC, 439559-082-T-J2-PDC, 463943-066-T-J2-PDC, and 519858-162-T-J1-PDC; three pancreatic carcinomas: 323965-272-R-J2-PDC, 521955-158-R6-J3-PDC, and 521955-158-R2-J5-PDC; two uterine sarcomas: 327498-152-R-J2-PDC and 993429-296-R-J1-PDC; two rhabdomyosarcomas: 755483-174-R-J1-PDC and 772245-204-R-J1-PDC; two soft tissue sarcomas: 126254-015-R-J1-PDC and 494315-158-R-J1-PDC; two malignant fibrous histiocytomas: 317291-083-R-J1-PDC and 596521-263-R-J1-PDC; two breast carcinomas: 171881-019-R-J1-PDC and 885512-296-R-J2-PDC; and one ovarian carcinoma: 6556581-035-R-J-PDC were obtained from the NCI PDMR, (https://pdmr.cancer.gov). The established cell lines HSSY-2 synovial sarcoma (RRID:CVCL 8719), SYO-1 synovial sarcoma (RRID:CVCL_7146), MPNST malignant peripheral neural sheath tumor were obtained from the Sloan Kettering Institute. The following established cell lines were purchased from the American Type Culture Collection (ATCC, Manassas, VA), Sor the received from the NCI repository:, PANC-1 pancreatic carcinoma (CRL-1469, RRID:CVCL_0480), OVCAR-5 ovarian carcinoma (RRID:CVCL_1628), OVCAR-8 ovarian carcinoma (RRID:CVCL_1629), , MCF-7 breast carcinoma (CRL-12584, RRID:CVCL_0031), MDA-MB-231 breast carcinoma (CRL-12532, RRID:CVCL_0062), NCI-H1876 small cell lung carcinoma (CRL-5902, RRID:CVCL_1503), NCI-H510A small cell lung carcinoma (HTB-184, RRID:CVCL_1565), NCI-H1417 (CRL-5869, RRID:CVCL_1469), and NCI-H196 small cell lung carcinoma (CRL-5823, RRID:CVCL_1509). Dr. Peter Houghton (Greehey Children's Cancer Research Institute, University of Texas Health Science Center, San Antonio, TX) provided Rh-18 rhabdomyosarcoma (RRID:CVCL_1659). Pooled donor human umbilical vein endothelial cells (HUVEC, Lonza, cat. CC-2519) and human mesenchymal stem cells (hMSC, Lonza, cat. PT-2501) were purchased from Lonza (Walkersville, MD).
Cell Culture. […]

Structure (SMILES): Cc1c(S(C)(=O)=O)c(-c2cc(F)cc(N3CCN(c4ccc(NS(=O)(=O)c5ccc(NC(CCN6CCC(C(=O)OCCCP(=O)(O)O)CC6)CSc6ccccc6)c(S(=O)(=O)C(F)(F)F)c5)cc4)CC3)c2)c(-c2ccc(Cl)cc2)n1C(C)C (stereo unspecified)
- viability, T/C (compound alone 0.1 µM): 109, 90.5, 87.4, 86.6, 91.1, 104, 77.5%
- viability, T/C (compound alone 0.316 µM): 104, 93.8, 81.6, 74.6, 86.2, 101, 92.4%
- viability, T/C (compound alone 1 µM): 105, 90.9, 78.2, 88.6, 83.9, 88.8, 94.6%
- viability, T/C (compound alone 3.16 µM): 91.9, 90.5, 83.4, 92.6, 103, 99.3, 76.3%

Structure (SMILES): CCN1C(C(=O)NC23CCC(C(=O)O)(CC2)CC3)C(c2cccc(Cl)c2F)C2(C(=O)Nc3cc(Cl)ccc32)C12CCCCC2 (stereo unspecified)
- viability, T/C (compound alone 0.03 µM): 87.8, 91.2, 82.1, 66.8, 94, 98.6, 77.8, 79.4, 69.9%

Structure (SMILES): CNC(C)C(=O)NC1CN(S(=O)(=O)c2cccc(S(=O)(=O)N3CCC4CCC(C(=O)NC(c5ccccc5)c5ccccc5)N4C(=O)C(NC(=O)C(C)NC)C3)c2)CCC2CCC(C(=O)NC(c3ccccc3)c3ccccc3)N2C1=O (stereo unspecified)
- viability, T/C (compound alone 0.00316 µM): 91.6, 74.3, 14, 36.3, 39.6, 37, 39.7, 33.5, 18%

— PubChem BioAssay AID1963445 (Molecular Pharmacology Branch, DTP, NCI, 2024)
